Our source for the self-cleavage values is the RNAGym collection of RNA variant scans (doi:10.7554/elife.90254).

B1: OR4K15 (parent)
chain: GUUAACGGUCAUAGGCCAUGGAAACUAGGAGCACCAUUUCGCUGCCAGUGAAGAAAUGAACAAAGAAAAUCUGGGCCAGGCAGGCAUCAAAAGAAAUAGUCUUGCGCUCAACCAGAAAGUCUGUAAUCAUUUUAAGGGUA

Read counts are not given, so values of variants with three or more changes are uncertain.

Variants of B1 are the subject of this data set. Briefly: self-cleavage, relative activity (ratio to wild type); higher = more cleavage; in vitro, sequencing; the parent is a self-cleaving ribozyme.
With U38C A47U A59G A140G, the self-cleavage came to 0.93. For U38A A68G C81U C105U, the self-cleavage came to 0.03. In the case of U37C A47U A59G A116G A117U U131C, the self-cleavage stood at 0.03. For the variant A36U U49A A52G U108A, the self-cleavage is 0.03. On to U38C A69G U70C U100C A111G, for which the self-cleavage was found to be 0.02. With U37C U87A U102C U108C the figure was 0.01. With U37C A51U A117G the figure was 2.67; with U38A U49C U97G, 1.09.

Turning to U38A U57C C71A A94G A111G A117G, the self-cleavage was found to be 0.01. The figure for U37A U72C U122G U132C is 0.33. As to U37C U49C A55G A129G, the self-cleavage came out at 1.05. Regarding U38A G104A A114G, the self-cleavage is 0.03. For U38C A51G A55G A94U, the self-cleavage came out at 2.28. For the variant U38C A91G A95G, the self-cleavage came out at 1.6. Consider A36U U37A A67G U133C, for which the self-cleavage is 1.4. In the case of U37C A47G A62G, the self-cleavage was found to be 0.75. Turning to U38C A95G A117G, the self-cleavage stood at 2.09. As for U37G A111G A114G, the self-cleavage was 0.02. The figure for U37C A63G A66G A117G is 1.68; for U38C A96G A111G U122C it is 0.01; for U38C A47G U72C U139C it is 0.17.

On to U37C U72C A116G, for which the self-cleavage is 0.25.

In the case of U37C A95G U122C, the self-cleavage worked out at 2.67. U37C A51U A66G U131C: the self-cleavage is 0.93. Regarding U37C U43C A86U A111G, the self-cleavage worked out at 0.01. The figure for A36U U87A A91G A140C is 0.94.

On to U38C G48C U49C A55G U87C, for which the self-cleavage is 0.78. On to U38C U39C A135G, for which the self-cleavage came out at 1.43. U37C U102C U122C: the self-cleavage turned out to be 1.97. U37C U122C U133C: the self-cleavage was 1.62. The figure for U37C A82G A114U is 0.07; for A36U A96G C121U U122C U130C U139C it is 0. With U37C U108C A134U, the self-cleavage was 0.02. The figure for U38C A56G A110G U127A is 0.16; for U38C A60G A78U U87C A118G U127C it is 0.01. Regarding U37C C40A U108C A114G A116G U132A, the self-cleavage worked out at 0.02. With U37C A111G U132C, the self-cleavage is 0.01. The figure for U38C A82G A94G is 0.24; for U37C A55C A67G A126U it is 1.43; for U38C A67G C85A A86G A117G it is 0.58.

U37C A86U A140C: the self-cleavage was 1.65. For U37C A51G A118G U127A, the self-cleavage was found to be 0.82. The figure for U38C A51G A62G is 1.2. As to U37C U38G A110G U120C, the self-cleavage stood at 0.12. With U37C U124C A140U the figure was 0.93; with A36U A96G A98G U108C A126G, 0. For the variant U38A U39A A98G U100C, the self-cleavage came out at 1.55. As for U38C A96G A129G, the self-cleavage came out at 0.78.

For the variant U38C A110U C128U, the self-cleavage was 0.53.

For U37C A90G A95G U100C, the self-cleavage is 1.59. Consider U38A A52G A118G, for which the self-cleavage was 1.2. In the case of U38C A90G A118G, the self-cleavage amounted to 1.88.

As to U37C A54G U87A A89G A94G, the self-cleavage is 0.76.

On to U37C A60C A117G A126G, for which the self-cleavage came to 2.1. The figure for U38C A52G A60G U103C C109G is 0.05; for U37C A59G A95G U97C A117U it is 0; for U38C A110U U122A it is 1.24.

For the variant U38C A47G A89U, the self-cleavage was determined as 0.46.

In the case of U38A A86G U130C, the self-cleavage was 1.26. In the case of U38C A116G A134G, the self-cleavage worked out at 0.64. Turning to U38C A52G U120C, the self-cleavage is 1.63. With U37C U87A U120C U130A, the self-cleavage is 0.47. As to U37C A67G U100C U120A, the self-cleavage amounted to 3. Consider U37C A60G C71U A89U, for which the self-cleavage worked out at 0.32. For the variant U37C U72C U87C, the self-cleavage turned out to be 0.27.

Regarding U37C A52G A64G A89G A92G U122A, the self-cleavage amounted to 0.46.

In the case of U37C A55G A67G, the self-cleavage amounted to 1.54. U37G A59U A86G: the self-cleavage was 1.88. On to A36U A69G U127C, for which the self-cleavage was 0.3. Consider U37C A54G U100C, for which the self-cleavage worked out at 2.25. The figure for A36U G65U U132C is 1.13. As to U37C A117G A125G, the self-cleavage is 0.48. On to U37C A125G A126G U132C, for which the self-cleavage was 0.96.

Consider U37C A56G A110G A117G, for which the self-cleavage was determined as 0.3. Consider U37C A47G U120C, for which the self-cleavage amounted to 1.13. For U37C U43C A63G, the self-cleavage worked out at 1.63. U37C U39C U97C A129G: the self-cleavage was 0.8. The figure for U37C A95G A117C A118G is 0.19; for U37C U43C A60G A66U U127C it is 0.37. For the variant A36U U57C A92G A125G, the self-cleavage worked out at 0.64.

A36U U120G U131C: the self-cleavage is 1.96. With U37C A67G U100A A117G the figure was 1.06; with U37C U49C A129G, 0.78; with U38C A68G U103A U132A, 0.79.
